PMC6906297
Results are given in words; binding and its absence hold for the method and conditions named. In cells and extracts the contact can be indirect. Some results given as binding are weak or reduced against the parent protein; the word gives no strength. Where a sequence is shown, tags or fusion partners need not be part of it.

Columns and labels:
[1] = target: T1, Retinoic acid-inducible gene I (RIG-I), tagged, transfected (UniProt O95786); assay: co-IP; HEK293T cells (2 x 10^6) transfected with the indicated plasmids for 24 h; lysate with monoclonal antibody or control mouse IgG and protein G agarose, 4 °C, 2 h; washed with lysis buffer containing 0.5 M NaCl; western blot
T1 sequence: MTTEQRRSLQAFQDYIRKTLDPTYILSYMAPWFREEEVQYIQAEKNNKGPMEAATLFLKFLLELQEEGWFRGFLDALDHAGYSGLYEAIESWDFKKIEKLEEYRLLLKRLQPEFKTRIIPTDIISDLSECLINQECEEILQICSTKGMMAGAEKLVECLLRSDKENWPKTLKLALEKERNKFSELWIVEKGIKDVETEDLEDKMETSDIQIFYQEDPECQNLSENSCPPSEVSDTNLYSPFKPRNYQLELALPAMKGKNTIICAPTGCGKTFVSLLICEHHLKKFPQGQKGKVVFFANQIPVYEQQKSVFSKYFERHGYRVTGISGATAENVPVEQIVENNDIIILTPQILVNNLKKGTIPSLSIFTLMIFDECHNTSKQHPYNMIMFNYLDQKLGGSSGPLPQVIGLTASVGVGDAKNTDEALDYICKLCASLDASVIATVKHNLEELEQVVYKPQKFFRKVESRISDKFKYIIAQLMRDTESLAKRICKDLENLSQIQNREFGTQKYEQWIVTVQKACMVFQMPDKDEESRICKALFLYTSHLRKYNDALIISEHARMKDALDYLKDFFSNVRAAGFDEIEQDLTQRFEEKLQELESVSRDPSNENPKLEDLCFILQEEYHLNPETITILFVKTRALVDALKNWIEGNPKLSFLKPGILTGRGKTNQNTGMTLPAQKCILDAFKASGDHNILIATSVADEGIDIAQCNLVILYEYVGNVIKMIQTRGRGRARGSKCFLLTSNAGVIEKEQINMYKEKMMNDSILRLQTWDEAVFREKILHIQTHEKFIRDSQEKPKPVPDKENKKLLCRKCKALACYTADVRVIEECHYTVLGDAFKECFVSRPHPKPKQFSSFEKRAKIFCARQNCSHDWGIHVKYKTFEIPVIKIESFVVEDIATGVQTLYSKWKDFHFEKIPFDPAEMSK

[2] = target: T2, RNF125, tagged, transfected (UniProt Q96EQ8); assay: as above
T2 sequence: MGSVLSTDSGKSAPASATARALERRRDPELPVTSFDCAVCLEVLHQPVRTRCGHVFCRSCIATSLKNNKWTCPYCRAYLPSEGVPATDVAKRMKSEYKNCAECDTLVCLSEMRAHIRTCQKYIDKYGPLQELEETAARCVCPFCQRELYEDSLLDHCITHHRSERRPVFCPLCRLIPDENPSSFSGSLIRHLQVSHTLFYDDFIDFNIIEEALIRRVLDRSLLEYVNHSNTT

- binding [1]: binds
- binding [2]: binds
B1: RNF125, tagged, transfected (enzyme, UniProt Q96EQ8 1-232)
chain: T2 sequence
